Results as given in PubChem BioAssay AID1671194 (National Center for Advancing Translational Sciences (NCATS), 2021).
In all, about 140,000 compounds went through this assay and about 240 (0.17%) were called active. This list was built around the results that the source calls inconclusive (neither active nor inactive); the mix of calls is not that of the screen. The call rests on the fitted dose curve; in most records, active means well fitted inhibition curve with a large enough effect; inconclusive means small, poorly fitted or top-dose-only effect; inactive means no such curve, though single readings can be large or run the other way. Where the call is inconclusive, the potency comes from a doubtful curve fit.

Experiment: Primary qHTS assay for inhibitors of alpha-synuclein gene (SNCA) expression; further: nearly all actives have a fitted effect of over 45% in size;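 on activity change, negative = inhibition: plate controls were DMSO cells for no effect and cell-free wells for full effect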
Conditions: HEK-293 SNCA-luciferase knock-in, luminescence, 24 h; activity change, negative = inhibition: at 57.2 µM (top of the series) unless noted
Potency means the concentration at half of the fitted maximal effect; tags describe the fitted curve by direction and shape.

Potency, inconclusive:
O=C(Nc1cccn2nc(C3CCC3)nc12)c1ccccn1 35.5 µM [inhibitor, single point]
COc1ccc(-n2c(=O)c3c(n2Cc2ccccc2)CN(Cc2c[nH]c4ccccc24)CC3)cc1 39.8 µM [inhibitor, single point]
CCOc1ccc(CC(=O)N2CCN(C(=O)c3nnn4c3COC(c3ccc(C)cc3)C4)CC2)cc1 (centres undefined) 1.41 µM [inhibitor, partial curve, poor fit]
CC1=C[C@@H](CNc2ccccn2)[C@H](C(C)C)C[C@H]1Cc1nnc(-c2cncn2C)o1 17.8 µM [inhibitor, partial curve, poor fit]
CN(C)C(=O)N1CCC2(CC1)CN(Cc1ccncc1)Cc1ccccc1O2 3.16 µM [inhibitor, full curve, poor fit]
COC(=O)c1ccc(C(=O)OC)c(NC(=O)N2CC3CCCN3c3ccccc32)c1 (centres undefined) 4.47 µM [inhibitor, single point]
CCC(=O)N(C1CCOCC1)C1CCN(S(=O)(=O)c2ccccc2CC)CC1 39.8 µM [inhibitor, single point]
Cc1noc(-c2cn(C3CCN(C(=O)c4ccc(F)cc4Cl)C3)nn2)n1 (centres undefined) 4.47 µM [inhibitor, partial curve]
O=S(=O)(c1ccccc1)c1nc(-c2cccs2)oc1SCc1ccccc1Cl 2 µM [inhibitor, full curve]
O=c1cc(-c2ccccn2)oc2c(-c3cn[nH]c3)nccc12 39.8 µM [inhibitor, partial curve, poor fit]
CN(C)C(=O)c1ccc2c(c1)N(C)C(CC(=O)NCC(C)(C)O)CO2 (centres undefined) 39.8 µM [inhibitor, single point]
CC(C)C[C@@H]1N[C@H](C(=O)NCc2ccc(F)cc2)Cc2cn(C)c3cccc1c23 25.1 µM [inhibitor, partial curve]
CCOC(=O)c1cc(-c2ccccc2)n(-c2cccc(C(=O)Nc3cccc(C)c3)c2)c1C 39.8 µM [inhibitor, single point]
COc1ccc(C(=O)N2CCC(n3cc(-c4nc(C(C)C)no4)nn3)CC2)c(OC)c1 39.8 µM [inhibitor, single point]
COc1ccc(CNC(=O)[C@@H]2CCC[C@@H](NCc3ccc(C(F)(F)F)cc3)CN(C)C(=O)C2)cc1 10 µM [inhibitor, partial curve, poor fit]
O=C(NCc1ccc(C(F)(F)F)cc1)C1CCCN(Cc2cccc(-c3cccs3)c2)C1 (centres undefined) 8.91 µM [inhibitor, partial curve, poor fit]
O=C(c1ccc(Cn2ccnc2)o1)N1CCCn2nc(CO)cc2C1 39.8 µM [inhibitor, single point]
O=C(CN1CCN(C(=O)c2cc3c(s2)CN(C2CCCC2)C3)CC1)N1CCCC1 22.4 µM [inhibitor, single point]
CC(C)Oc1ccc(CNC(=O)Nc2ccc3c(c2)N(C)C(=O)c2ccccc2S3)cc1 14.1 µM [inhibitor, single point]
Cc1cccc(Cn2c(SCc3ccc(C(=O)N4CCC(C)CC4)cc3)nc3ccncc32)c1 39.8 µM [inhibitor, single point]
O=C1CC(c2ccccc2)N(C(=O)CNC(=O)C2CCCCC2)CCCCCN1 (centres undefined) 7.08 µM [inhibitor, partial curve, poor fit]
Cc1nn2c(c1-c1ccccc1OCc1ccccc1)N(Cc1ccccc1)CCC2 31.6 µM [inhibitor, single point]
O=C(NCc1cccc(Cl)c1)c1cc(-c2cccs2)c2cccn2n1 39.8 µM [inhibitor, single point]
CCOc1ccccc1C(=O)Nc1cccc2ccc(C)nc12 31.6 µM [inhibitor, single point]
CN(c1ccccc1)c1cc(=O)c2ccnc(-c3ccccc3O)c2o1 35.5 µM [inhibitor, single point]
O=C(NC1CCN(c2nccc(Nc3ccccc3F)n2)CC1)c1ccc(F)cc1 39.8 µM [inhibitor, single point]
Cc1nc(CN2C(=O)OC3(CCN(C(=O)Cc4ccccc4)CC3)C2(C)c2ccccc2)cs1 (centres undefined) 17.8 µM [inhibitor, single point]
COCCNC(=O)c1ccc2c(c1)N(C)C(CC(=O)NCc1ccccn1)CO2 (centres undefined) 39.8 µM [inhibitor, single point]
CC1(COc2cccnc2)COc2ccc(C(=O)Nc3cccc(Cl)c3)cc2N1 (centres undefined) 56.2 µM [inhibitor, single point]
COc1ccc(-n2nc(C3CCN(C(=O)C(C)(C)C)CC3)[nH]c2=O)cc1 3.55 µM [inhibitor, full curve, poor fit]
O=C(C1CCCN1c1nccc(Nc2ccccc2F)n1)N1CCOCC1 (centres undefined) 8.91 µM [inhibitor, partial curve, poor fit]
COc1ccc(Cn2ccc3nc(C)c(C(=O)Nc4ccc(F)cc4)cc3c2=O)cc1 39.8 µM [inhibitor, single point]
O=C1c2cnc(-c3ccccc3)nc2OCCN1c1ccccc1 15.8 µM [inhibitor, partial curve, poor fit]
CCOc1ccc(Nc2c(S(=O)(=O)c3ccc(Cl)cc3)cnc3ccc(OC)cc23)cc1 39.8 µM [inhibitor, single point]
Cc1nn2c(c1-c1ccccc1C(C)C)N(Cc1ccc(F)cc1)CCC2 56.2 µM [inhibitor, single point]
CCOC(=O)CC(NC(=O)CCc1c(C)nc2c(-c3ccccc3)c(C)nn2c1C)c1ccc(C)cc1 (centres undefined) 7.08 µM [inhibitor, full curve, poor fit]
Cc1cc(Cl)ccc1NC(=O)C1CN(S(C)(=O)=O)CC12CCCCC2 (centres undefined) 3.55 µM [inhibitor, partial curve, poor fit]
O=C(NCCn1cc(SCc2cccc(F)c2)c2ccccc21)c1cccc(C(F)(F)F)c1 31.6 µM [inhibitor, partial curve, poor fit]
Cc1ccc(N(Cc2cccs2)C(=O)c2ccccc2)cc1 14.1 µM [inhibitor, single point]
CCOC(=O)c1cc(-c2ccccc2)n(CCC(=O)Nc2ccc(C(F)(F)F)cc2)c1C 25.1 µM [inhibitor, single point]
CC(C)c1noc(-c2cccn3c(CNC(=O)c4ccccn4)nnc23)n1 39.8 µM [inhibitor, single point]
Cc1nn(-c2ccccc2)c2c1N(CC(=O)NCc1ccc(N(C)C)cc1)C(=O)CS2 39.8 µM [inhibitor, single point]
O=C1COCC2(CN(Cc3cc(F)ccc3F)C2)CN1Cc1ccccc1 10 µM [inhibitor, single point]
COc1ccc(NC(=O)Cn2c(N(C)Cc3ccccc3)nc(C)cc2=O)cc1Cl 35.5 µM [inhibitor, single point]
CC(=O)N1CCC([C@@H]2CN(C(=O)c3ccc(C#N)cc3)C[C@H]2CO)CC1 39.8 µM [inhibitor, single point]
COCCCNC(=O)N1CCCC(c2[nH]ccc2C(N)=O)C1 (centres undefined) 39.8 µM [inhibitor, single point]

Activity change, negative = inhibition, inactive:
Cc1ccc(C(=O)N2CCN(c3cc(-c4ccccc4)[nH]n3)CC2)cc1F 17.9%
O=C(CCC1CCN(C(=O)c2ccccc2Cl)CC1)N1CCc2ccccc2C1 10.9%
Fc1ccc(CN2CCOC[C@H]2c2ncc(-c3ccc(F)cc3)[nH]2)cc1 -21.6% [at 87.6 µM]
O=C(NCc1cccs1)c1ccc2nnc(CC3CC3)n2c1 26.5% [at 87.6 µM]
CCCNC(=O)C1N(c2ccc(OC)cc2)C(=O)C12CCCCC2 (centres undefined) -8.92%
Cc1ccc(C(=O)Nc2nc3nc(C)cc(=O)n3[nH]2)cc1 17.6%
OCC1(CN2CCCC2)CCN(Cc2ccccc2F)CC1 7.89%
COc1cccc(-c2ncc3c(n2)OCCN(CC2CC2)C3=O)c1OC 21.3% [at 87.6 µM]
O=C(Cc1ccccn1)N1CCC(C(=O)N2CCC(N3CCCC3=O)CC2)CC1 23%
O=C(NCc1ccccc1Cl)c1ccc2oc(-c3cccnc3)nc2c1 17.8%
COc1ccc(C(=O)N2CCC(Cc3nc(-c4ccc(F)cc4)no3)CC2)c(C)c1 -25.9%
COc1ccc(CNC(=O)C2CCN(C(=O)c3ncn4c3COC(c3ccccc3)C4)CC2)cc1 (centres undefined) 73%
O=C(O)c1ccccc1Nc1ccccc1 21.3%
CN1c2cc(C(=O)Nc3cc(F)cc(F)c3)ccc2C(=O)N2CCCCCC21 (centres undefined) 113%
COc1ccc(-c2cn3c(n2)sc2cc(C(=O)NCc4cccs4)ccc23)cc1 133%
COc1ccc(-c2nc3ccc(NS(C)(=O)=O)cc3o2)cc1 52.9%
Cc1cc(=O)n(CC(=O)NCc2cccs2)c(N(C)Cc2ccccc2)n1 -3.96%
CN(Cc1ccc(F)cc1)c1ccc2ncc(Nc3ccc(CCO)cc3)n2n1 -29.1% [at 87.6 µM]
